Assay results: the BET-seq Pho4 binding data (Le et al. 2018)
This is one part of the list. These are noisy estimates, calculated here from bound and input reads.

target: T1, Pho4 (S. cerevisiae) (UniProt P07270); assay: relative binding free energy (BET-seq); higher = weaker binding; conditions: reference: library average
T1 sequence: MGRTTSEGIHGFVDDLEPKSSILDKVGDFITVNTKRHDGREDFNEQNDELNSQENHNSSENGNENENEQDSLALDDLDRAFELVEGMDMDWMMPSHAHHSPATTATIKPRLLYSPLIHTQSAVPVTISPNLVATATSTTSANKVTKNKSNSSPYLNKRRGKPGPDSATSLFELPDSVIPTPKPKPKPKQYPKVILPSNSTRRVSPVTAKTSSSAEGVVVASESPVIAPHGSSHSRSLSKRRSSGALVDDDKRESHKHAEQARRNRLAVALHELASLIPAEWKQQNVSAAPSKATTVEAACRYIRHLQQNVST

Sequence | relative binding free energy
CCTGACACGTGGTGTG | -0.06 kcal/mol
CGGTACACGTGGGTGG | -0.1 kcal/mol
TCGGGCACGTGAATTT | 0.21 kcal/mol
TTTGCCACGTGGGATG | 0.01 kcal/mol
TACAGCACGTGGTCGG | -0.13 kcal/mol
GTAGCCACGTGGTGCG | -0.05 kcal/mol
ATGTGCACGTGAGATG | 0.27 kcal/mol
CTGCGCACGTGTGTGT | -0.25 kcal/mol
AGTGACACGTGGGTAG | -0.23 kcal/mol
CGATTCACGTGGCTTT | 0.29 kcal/mol
GTAGTCACGTGTGGCA | 0.03 kcal/mol
ACATGCACGTGGAGGT | -0.02 kcal/mol
TGGACCACGTGTGTAT | -0.03 kcal/mol
GGTGTCACGTGTTACG | 0.14 kcal/mol
TAGTTCACGTGTGGGA | 0.43 kcal/mol
TGATGCACGTGGAGTT | 0.02 kcal/mol
TAGTGCACGTGGCGTA | -0.03 kcal/mol
GGCGTCACGTGGTGCG | 0.09 kcal/mol
GTAGTCACGTGTGTAC | 0.04 kcal/mol
TTAGTCACGTGCCTTT | 0.12 kcal/mol
ATGTTCACGTGTATCT | 0.19 kcal/mol
TGGTTCACGTGGAACT | 0.19 kcal/mol
GGATGCACGTGCGTGT | -0.06 kcal/mol
TTGTGCACGTGAGAGC | 0.32 kcal/mol
CTGTGCACGTGGGTAA | -0.15 kcal/mol

Sequence | relative binding free energy
GCTATCACGTGTTTGT | 0.13 kcal/mol
TGGAACACGTGTCGTT | -0.02 kcal/mol
GATTGCACGTGTCTTT | 0.28 kcal/mol
TTTAGCACGTGAGCGG | 0.12 kcal/mol
TTAGTCACGTGGGGAC | 0.04 kcal/mol
TAATTCACGTGAGAGA | 0.4 kcal/mol
TCGTGCACGTGCGAGG | -0.2 kcal/mol
GACGTCACGTGTTTTG | 0.24 kcal/mol
GTGGCCACGTGATTTA | 0.12 kcal/mol
GGTGTCACGTGGATCA | 0.19 kcal/mol
TGCTGCACGTGAAGGT | 0.13 kcal/mol
GTGAACACGTGTGGGT | 0.04 kcal/mol
TTAGTCACGTGGTATA | 0.05 kcal/mol
CGGGACACGTGTTAGT | 0.2 kcal/mol
TGGGGCACGTGTCAAG | -0.17 kcal/mol
TGCGTCACGTGAAGCG | 0.27 kcal/mol
ATGCGCACGTGTCGTG | -0.17 kcal/mol
TGTAACACGTGTCATT | 0.03 kcal/mol
GGCGGCACGTGTAGGG | -0.08 kcal/mol
GTAAACACGTGTTCGT | 0.12 kcal/mol
AAGCGCACGTGGGGTC | -0.23 kcal/mol
ATCAACACGTGGGGGG | -0.13 kcal/mol
AAGGTCACGTGTAGAA | 0.11 kcal/mol
ATAGGCACGTGGGGGA | -0.31 kcal/mol
TGGGTCACGTGATGAC | 0.13 kcal/mol

Sequence | relative binding free energy
TGTGGCACGTGTAAGG | 0.09 kcal/mol
ATTATCACGTGCTAGG | 0.13 kcal/mol
GGTGTCACGTGGCGGT | 0.09 kcal/mol
TTAATCACGTGTCTTT | 0.08 kcal/mol
AGCGTCACGTGCAGTG | 0.09 kcal/mol
ATTTTCACGTGGTTGA | 0.18 kcal/mol
TGGAACACGTGTTGGA | 0.05 kcal/mol
TGGAACACGTGGATGA | 0.14 kcal/mol
TGACGCACGTGGGTGC | -0.24 kcal/mol
TTAATCACGTGTGGGA | 0.28 kcal/mol
AACTTCACGTGGGTGG | 0.24 kcal/mol
AGGCGCACGTGGGATT | -0.16 kcal/mol
ATGCTCACGTGAGGCT | 0.48 kcal/mol
GTTGGCACGTGGACAT | 0.06 kcal/mol
GATATCACGTGGGAAT | 0.18 kcal/mol
GATGTCACGTGGGATC | 0.07 kcal/mol
GGGGACACGTGCGGGC | -0.03 kcal/mol
TGGTTCACGTGATAGC | 0.41 kcal/mol
TTGTACACGTGGTCTC | 0.04 kcal/mol
CATGTCACGTGTGGTA | 0.11 kcal/mol
GAGATCACGTGAGGTT | 0.47 kcal/mol
AAGGCCACGTGTGTGG | -0.05 kcal/mol
GGGGCCACGTGCAGGA | -0.13 kcal/mol
GAAAGCACGTGTAGTG | -0.03 kcal/mol
TGGCACACGTGAGTGG | 0.24 kcal/mol

Sequence | relative binding free energy
CTGCTCACGTGTATGG | 0.14 kcal/mol
GTCTACACGTGGGGGA | 0.15 kcal/mol
AGGATCACGTGGTATT | -0.05 kcal/mol
TCTATCACGTGGTATG | 0.07 kcal/mol
CAATGCACGTGTTTAG | 0.09 kcal/mol
CTGGTCACGTGTCGTA | 0.04 kcal/mol
AGTTTCACGTGGGGAG | 0.26 kcal/mol
TAGTGCACGTGCGTCG | -0.07 kcal/mol
ATTACCACGTGTAGTA | 0.09 kcal/mol
CTGAGCACGTGGTGCG | -0.09 kcal/mol
AGCAGCACGTGTTTGG | -0.24 kcal/mol
TTTTGCACGTGCGTAG | 0 kcal/mol
GTGCTCACGTGGCATG | 0.27 kcal/mol
TTGAGCACGTGGGTGC | -0.18 kcal/mol
ATTCGCACGTGATATG | 0.08 kcal/mol
AGGCGCACGTGTGAGG | -0.04 kcal/mol
GGTTGCACGTGGTGCT | -0.05 kcal/mol
TACTGCACGTGTGTCT | -0.01 kcal/mol
CGTTTCACGTGGATTT | 0.4 kcal/mol
AGAAGCACGTGTAGAG | 0.06 kcal/mol
TCGCGCACGTGAGGGG | 0.03 kcal/mol
AATACCACGTGGTGGT | -0.12 kcal/mol
TCACTCACGTGGGGTG | 0.07 kcal/mol
TGCGTCACGTGTGGGT | 0.03 kcal/mol
CTTTTCACGTGCGAGT | 0.19 kcal/mol

Sequence | relative binding free energy
GAAAACACGTGGTTTG | -0.08 kcal/mol
TAATACACGTGGTTGA | -0.02 kcal/mol
TGTTTCACGTGCAATG | 0.28 kcal/mol
ATTAGCACGTGAGCGT | -0.02 kcal/mol
GTATGCACGTGGCATA | 0 kcal/mol
TGTTGCACGTGTAAAA | 0.13 kcal/mol
TAAAGCACGTGTGTGC | -0.13 kcal/mol
AAGAGCACGTGAGGCG | 0.09 kcal/mol
TAATGCACGTGAGTAC | 0.29 kcal/mol
GTTTTCACGTGATTGC | 0.31 kcal/mol
TAGGCCACGTGGGATA | -0.13 kcal/mol
CTTGTCACGTGTAGTT | 0.07 kcal/mol
TGTCGCACGTGGGGGT | -0.25 kcal/mol
TGGTTCACGTGCAGAT | 0.24 kcal/mol
TTCATCACGTGTTGGG | 0.13 kcal/mol
TCTCGCACGTGTTATG | 0 kcal/mol
GTATGCACGTGGTGGT | 0.04 kcal/mol
TACGGCACGTGGTTTT | -0.03 kcal/mol
GCGGGCACGTGGATAT | -0.01 kcal/mol
GTGACCACGTGTGGTA | -0.03 kcal/mol
GCGTTCACGTGGCGAG | 0.28 kcal/mol
TAGATCACGTGTTGGG | 0.18 kcal/mol
ACAGGCACGTGTGGTG | -0.25 kcal/mol
AAGGGCACGTGGTCTG | -0.33 kcal/mol
ATTTTCACGTGAGATT | 0.42 kcal/mol

Sequence | relative binding free energy
ATATACACGTGGGTCT | -0.01 kcal/mol
TTCGGCACGTGCTGTT | -0.05 kcal/mol
GTTTTCACGTGCAGGA | 0.26 kcal/mol
GTGGACACGTGCGGAG | -0.04 kcal/mol
GGGTCCACGTGTTTAG | 0.15 kcal/mol
TATAGCACGTGAATTG | 0.06 kcal/mol
AATGTCACGTGTTGCG | -0.01 kcal/mol
AGTGGCACGTGAAGTG | 0.31 kcal/mol
GCTTTCACGTGGGTGG | 0.12 kcal/mol
TTTCGCACGTGTACGG | 0.1 kcal/mol
TGTCGCACGTGGATGT | -0.09 kcal/mol
CATTGCACGTGCTGGT | -0.02 kcal/mol
GAATTCACGTGCGTTG | 0.25 kcal/mol
TTAGGCACGTGTGAGC | -0.08 kcal/mol
AGCTGCACGTGTGTGT | -0.13 kcal/mol
TAAGACACGTGGTAGT | -0.23 kcal/mol
GTTTGCACGTGCTAAT | 0.01 kcal/mol
ATAGTCACGTGGTTTT | 0 kcal/mol
CTCGGCACGTGGGCGA | -0.05 kcal/mol
GGTGGCACGTGGTAAC | -0.11 kcal/mol
GGTGACACGTGACAGG | 0.04 kcal/mol
